From US20240270806A1 (Chugai, published 2024)

B1: Bivalent IL-12 fusion protein FP22 (other)
heavy: QVQLVQSGAEVKKPGSSVKVSCKASGGTFSDYYLHWSRQAPGQGLEWMGWIDPENQDTEYAPKFQGRVTITADESTSTAYMELSSLRSEDTAVYYCARTKELRYIDVWGQGTLVTVSSTSGSGRSATPRGASTKGPSVFPLAPCSKSTSGGTAALGCLVKDYFPEPVTVSWNSGALTSGVHTFPAVLQSSGLYSLSSVVTVPSSSLGTQTYICNVNHKPSNTKVDKRVGGGGSGGGGS[human IgG1 Fc with changes cut from this listing]GSGGSGGSGGSGGSGGSIWELKKDVYVVELDWYPDAPGEMVVLTCDTPEEDGITWTLDQSSEVLGSGKTLTIQVKEFGDAGQYTCHKGGEVLSHSLLLLHKKEDGIWSTDILKDQKEPKNKTFLRCEAKNYSGRFTCWWLTTISTDLTFSVKSSRGSSDPQGVTCGAATLSAERVRGDNKEYEYSVECQEDSACPAAEESLPIEVMVDAVHKLKYENYTSSFFIRDIIKPDPPKNLQLKPLKNSRQVEVSWEYPDTWSTPHSYFSLTFCVQVQGKHKEKKDRVFTDKTSATVICRKNASISVRAQDRYYSSSWSEWASVPCSGGGGSGGGGSGGGGSGGGGSNLPVATPDPGMFPCLHHSQNLLRAVSNMLQKARQTLEFYPCTSEEIDHEDITKDKTSTVEACLPLELTKNESCLNSRETSFITNGSCLASRKTSFMMALCLSSIYEDLKMYQVEFKTMNAKLLMDPKRQIFLDQNMLAVIDELMQALNFNSETVPQKSSLEEPDFYKTKIKLCILLHAFRIRAVTIDRVMSYLNAS
light: DIVMTQSPLSLPVTPGEPASISCRSSDSISINLHWYQQKPGQAPRQLIAFASQSIEGVPSRFSGSGSGTDFTLTISSLQPEDFATYYCQQSNSFPLTFGQGTKVEIKRTVAAPSVFIFPPSDEQLKSGTASVVCLLNNFYPREAKVQWKVDNALQSGNSQESVTEQDSKDSTYSLSSTLTLSKADYEKHKVYACEVTHQGLSSPVTKSFNRGEC
B2: Bivalent IL-12 fusion protein FP26 (other)
heavy: QVQLVQSGAEVKKPGSSVKVSCKASGGTFSDYYLHWSRQAPGQGLEWMGWIDPENGDTEYAPKFQGRVTITADESTSTAYMELSSLRSEDTAVYYCARNKELRYIDVWGQGTLVTVSSTSGSGRSATPRGASTKGPSVFPLAPCSKSTSGGTAALGCLVKDYFPEPVTVSWNSGALTSGVHTFPAVLQSSGLYSLSSVVTVPSSSLGTQTYICNVNHKPSNTKVDKRVGGGGSGGGGS[human IgG1 Fc with changes cut from this listing]GSGGSGGSGGSGGSGGSIWELKKDVYVVELDWYPDAPGEMVVLTCDTPEEDGITWTLDQSSEVLGSGKTLTIQVKAFGDAGQYTCHKGGEVLSHSLLLLHKKEDGIWSTDILKDQKEPKNKTFLRCEAKNYSGRFTCWWLTTISTDLTFSVKSSRGSSDPQGVTCGAATLSAERVRGDNKEYEYSVECQEDSACPAAEESLPIEVMVDAVHKLKYENYTSSFFIRDIIKPDPPKNLQLKPLKNSRQVEVSWEYPDTWSTPHSYFSLTFCVQVQGKHKEKKDRVFTDKTSATVICRKNASISVRAQDRYYSSSWSEWASVPCSGGGGSGGGGSGGGGSGGGGSNLPVATPDPGMFPCLHHSQNLLRAVSNMLQKARQTLEFYPCTSEEIDHEDITKDKTSTVEACLPLELTKNESCLNSRETSFITNGSCLASRKTSFMMALCLSSIYEDLKMYQVEFKTMNAKLLMDPKRQIFLDQNMLAVIDELMQALNFNSETVPQKSSLEEPDFYKTKIKLCILLHAFRIRAVTIDRVMSYLNAS
light: B1 light with S25A, D27Q, E56S
B3: Bivalent IL-12 fusion protein FP12 (other)
heavy: QVQLVQSGAEVKKPGSSVKVSCKASGGTFSDYYLHWSRQAPGQGLEWMGWIDPENGDTEYAPKFQGRVTITADESTSTAYMELSSLRSEDTAVYYCARNKELRYIDVWGQGTLVTVSSTSTSGRSANPRGASTKGPSVFPLAPCSKSTSGGTAALGCLVKDYFPEPVTVSWNSGALTSGVHTFPAVLQSSGLYSLSSVVTVPSSSLGTQTYICNVNHKPSNTKVDKRVGGGGSGGGGS[human IgG1 Fc with changes cut from this listing]GSGGSGGSGGSGGSGGSIWELKKDVYVVELDWYPDAPGEMVVLTCDTPEEDGITWTLDQSSEVLGSGKTLTIQVKEFGDAGQYTCHKGGEVLSHSLLLLHKKEDGIWSTDILKDQKEPKNKTFLRCEAKQYSGRFTCWWLTTISTDLTFSVKSSRGSSDPQGVTCGAATLSAERVRGDNKEYEYSVECQEDSACPAAEESLPIEVMVDAVHKLKYEQYTSSFFIRDIIKPDPPKNLQLKPLKNSRQVEVSWEYPDTWSTPHSYFSLTFCVQVQGKHKEKKDRVFTDKTSATVICRKNASISVRAQDRYYSSSWSEWASVPCSGGGGSGGGGSGGGGSGGGGSNLPVAAPDPGMFPCLHHSQNLLRAVSNMLQKARQTLEFYPCTSEEIDHEDITKDKTSTVEACLPLELTKQESCLNSRETSFITQGSCLASRKTSFMMALCLSSIYEDLKMYQVEFKTMNAKLLMDPKRQIFLDQNMLAVIDELMQALNFNSETVPQKSSLEEPDFYKTKIKLCILLHAFRIRAVTIDRVMSYLQAS
light: B1 light with S25A, D27Q, S30V, E56S
B4: Bivalent IL-12 fusion protein FP27 (other)
heavy: QVQLVQSGAEVKKPGSSVKVSCKASGGTFSDYYLHWSRQAPGQGLEWMGWIDPENGDTEYAPKFQGRVTITADESTSTAYMELSSLRSEDTAVYYCARNKELRYIDVWGQGTLVTVSSTSGSGRSATPRGASTKGPSVFPLAPCSKSTSGGTAALGCLVKDYFPEPVTVSWNSGALTSGVHTFPAVLQSSGLYSLSSVVTVPSSSLGTQTYICNVNHKPSNTKVDKRVGGGGSGGGGS[human IgG1 Fc with changes cut from this listing]GSGGSGGSGGSGGSGGSIWELKKDVYVVELDWYPDAPGEMVVLTCDTPEEDGITWTLDQSSEVLGSGKTLTIQVKEAGDAGQYTCHKGGEVLSHSLLLLHKKEDGIWSTDILKDQKEPKNKTFLRCEAKNYSGRFTCWWLTTISTDLTFSVKSSRGSSDPQGVTCGAATLSAERVRGDNKEYEYSVECQEDSACPAAEESLPIEVMVDAVHKLKYENYTSSFFIRDIIKPDPPKNLQLKPLKNSRQVEVSWEYPDTWSTPHSYFSLTFCVQVQGKHKEKKDRVFTDKTSATVICRKNASISVRAQDRYYSSSWSEWASVPCSGGGGSGGGGSGGGGSGGGGSNLPVATPDPGMFPCLHHSQNLLRAVSNMLQKARQTLEFYPCTSEEIDHEDITKDKTSTVEACLPLELTKNESCLNSRETSFITNGSCLASRKTSFMMALCLSSIYEDLKMYQVEFKTMNAKLLMDPKRQIFLDQNMLAVIDELMQALNFNSETVPQKSSLEEPDFYKTKIKLCILLHAFRIRAVTIDRVMSYLNAS
light: B1 light with S25A, D27Q, E56S
B5: Bivalent IL-12 fusion protein FP8 (Ab101H-12aa-C4-L4-IL12006/Ab102L-SK1) (other)
heavy: QVQLVQSGAEVKKPGSSVKVSCKASGGTFSDYYLHWVRQAPGQGLEWMGWIDPENGDTEYAPKFQGRVTITADESTSTAYMELSSLRSEDTAVYYCARNKELRYFDVWGQGTLVTVSSTSTSGRSANPRGASTKGPSVFPLAPCSKSTSGGTAALGCLVKDYFPEPVTVSWNSGALTSGVHTFPAVLQSSGLYSLSSVVTVPSSSLGTQTYICNVNHKPSNTKVDKRVGGGGSGGGGS[human IgG1 Fc with changes cut from this listing]GSGGSGGSGGSGGSGGSIWELKKDVYVVELDWYPDAPGEMVVLTCDTPEEDGITWTLDQSSEVLGSGKTLTIQVKEFGDAGQYTCHKGGEVLSHSLLLLHKKEDGIWSTDILKDQKEPKNKTFLRCEAKQYSGRFTCWWLTTISTDLTFSVKSSRGSSDPQGVTCGAATLSAERVRGDNKEYEYSVECQEDSACPAAEESLPIEVMVDAVHKLKYEQYTSSFFIRDIIKPDPPKNLQLKPLKNSRQVEVSWEYPDTWSTPHSYFSLTFCVQVQGKSKREKKDRVFTDKTSATVICRKNASISVRAQDRYYSSSWSEWASVPCSGGGGSGGGGSGGGGSGGGGSRNLPVAAPDPGMFPCLHHSQNLLRAVSNMLQKARQTLEFYPCTSEEIDHEDITKDKTSTVEACLPLELTKQESCLNSRETSFITQGSCLASRKTSFMMALCLSSIYEDLKMYQVEFKTMNAKLLMDPKRQIFLDQNMLAVIDELMQALNFNSETVPQKSSLEEPDFYKTKIKLCILLHAFRIRAVTIDRVMSYLQAS
light: B1 light with S25A, D27Q, Q46L, A49Y, E56S

Columns and labels:
Assay in all cases: cell-based or functional assay
[1] = biological target: T1, Human IL-12 receptor (human IL-12Rb1 and IL-12Rb2) (human, UniProt P42701 24-662; Q99665 24-862)
[2] = biological target: T1, Human IL-12 receptor (human IL-12Rb1 …); remark: listed apart in the source
[3] = biological target: T1, Human IL-12 receptor (human IL-12Rb1 …); remark: listed apart in the source
[4] = biological target: T1, Human IL-12 receptor (human IL-12Rb1 …); remark: listed apart in the source

| Binder | Fold change (window), Donor 1, IFN gamma release by human PBMC [2] [fold] | Fold change (window), Donor 2, IFN gamma release by human PBMC [2] [fold] | Fold change (window), Donor 3, IFN gamma release by human PBMC [2] [fold] | Fold change (window), IL-12 luciferase assay [3] [fold] | other results |
| --- | --- | --- | --- | --- | --- |
| B1 | – | – | – | – | Fold change (window), IL-12 luciferase assay [1]: 42.9 fold |
| B2 | 174 | 123 | 129 | 341 | – |
| B3 | – | – | – | – | EC50 (read off the curve), IL-12 luciferase reporter assay (+ MTSP1) [bottom graph] [4]: ~0.4 nM |
| B4 | 282 | 173 | 203 | 441 | – |
| B5 | – | – | – | – | EC50 (read off the curve), IL-12 luciferase reporter assay (+ MTSP1) [top graph] [4]: ~0.3 nM |

Where a chain is given by its changes, count along the chain named. Where two headings read alike, the source gives them in different places.
